Experimental data as given in PubChem BioAssay AID1508624 (National Center for Advancing Translational Sciences (NCATS), 2021).
Screen size: about 48,000 compounds; about 120 (0.25%) were called active. Another 4% or so got no clear call; they are omitted. The call rests on the fitted dose curve; in most records, active means well fitted activation curve with a large enough effect; inconclusive means small, poorly fitted or top-dose-only effect, or another doubt; inactive means no such curve, though single readings can be large or run the other way. The list shows a part of the results.

assay: Primary qHTS for Identification of Small Molecule Activators of Huntingtin-Antisense Promoter Activity; conditions: HEK293 HTT-AS promoter firefly luciferase reporter, 24 h; series mostly up to 57.5 µM; activity change, positive = activation: at the top concentration; further: nearly all actives have a fitted effect of over 55% in size
How it was run: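 HEK293 luciferase promoter-reporter cells (2,500/well) plated 24 h, then compounds added at up to 57.5 uM final for 24 h at 37 °C. Firefly luminescence by Dual-Glo, normalized to vehicle (0%) and zero RLU (-100%).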

Activity change, positive = activation, inactive:
COc1ccc(C(=O)Nc2cccc(OCc3cc(=O)n4c5c(sc4n3)CCCC5)c2)cc1 -6.56%, CCn1cc(C(=O)O)c(=O)c2cnc(N3CCCC3)nc21 -11% [at 11.5 µM, percent change from vehicle, -100% = no light], COc1ccc(OCc2nc3c4c(-c5ccccc5)c(-c5ccccc5)oc4ncn3n2)cc1 -4.49%, COc1cccc(C(=O)c2cn(CC(=O)NCc3ccccc3)c3nc(C)ccc3c2=O)c1 -18.2%, COC(=O)c1sc(NC(=O)/C=C/c2ccc(OC)c(OC)c2)c(C(=O)OC)c1C -1.59%, COc1ccc(CNC(=O)CSc2nc3ccccc3nc2Cc2ccccc2OC)cc1 -12.4%, CC(C)NC(=O)CCCN1C(=O)CCn2nc(-c3cccn3C)cc21 5.72%, CCN1CCN(c2cc3c(cc2F)c(=O)c(S(=O)(=O)c2ccccc2)cn3C)CC1 17.6%, COc1ccccc1NC(=O)CSc1nc2ccccc2c2nc(-c3ccccc3)nn12 3.31%, Cc1sc2ncn(CC(=O)N3CCN(c4ccc(F)cc4)CC3)c(=O)c2c1S(=O)(=O)N1CCC(C)CC1 -1.66%, Cc1ccc(CNC(=O)Cn2c(=O)cc(C(F)(F)F)c3c(C)nn(C)c32)cc1 -10.4%, COC(=O)C1=C(c2ccccc2)c2ccccc2S(=O)(=O)N1CC(=O)Nc1ccc(F)c(F)c1 -43.1%, CC1CCC(C(=O)N(c2cc(C#CC(C)(C)C)sc2C(=O)O)C2CCC(O)CC2)CC1 (stereo not drawn) -47.3%, CCOc1ccc(NC(=O)CN(c2ccc(CC)cc2)S(=O)(=O)c2c(C)noc2C)cc1 -6.95%, Cc1ccc(CNC(=O)C2CCN(S(=O)(=O)c3c(C)noc3/C=C/c3cccs3)CC2)cc1 -7.28%, O=C(CCS(=O)(=O)c1cc2c(cc1Cl)NC(=O)CO2)NCc1ccccc1Cl -6.01%, CC(C)Oc1ccc(CNC(=O)c2ccc(CN3CC(=O)N4CCCCC4C3=O)cc2)cc1 (stereo not drawn) -16%, Oc1c(C(c2ccc(Cl)cc2Cl)N2CCN(c3ccccc3)CC2)sc2nc(-c3ccco3)nn12 (stereo not drawn) -13%, O=C(NCc1cccc(Cl)c1)c1ccc(NC(=O)N2CC3CCCN3c3ccccc32)cc1 (stereo not drawn) -39.2%, CSc1ncc(C(=O)NCc2cccc(F)c2)c(-c2ccccc2)n1 -22.2%, COc1ccc(NC(=O)CN2CCCN(Cc3ccc(Cl)cc3)S2(=O)=O)cc1Cl -39.8%, CCN1c2ccccc2-c2nc(SCC(=O)NCc3ccc(C)cc3)ncc2S1(=O)=O 2.11%, COc1ccc(CNC(=O)c2cnc3sc(N4CCCCCC4)nn3c2=O)cc1 -1.19%, CCOC(=O)c1cnc2ccccc2c1NCCc1ccc(OC)c(OC)c1 -16.9%, CCOc1ccc(NC(=O)NCCc2c(C)nn(C)c2C)cc1 7.43%, CC1CCc2nn(CC(=O)Nc3ccccc3Cl)cc2C1 (stereo not drawn) 9.02%, COc1ccc(NC(=O)C(=O)NCC(c2cccnc2)N2CCc3ccccc32)cc1OC (stereo not drawn) -27%, Cc1c(C2=CCN(S(=O)(=O)c3cccc(Cl)c3)CC2)c2ccccc2n1CC(=O)N1CCCC1 -33.2%, CN(Cc1ccccc1)S(=O)(=O)c1ccc(-c2cnc(C3CC3)o2)cc1 -18.4%, Cc1ccc(NC(=O)C(C)Sc2nc(=O)cc(N)n2-c2cccc(C)c2)cc1 (stereo not drawn) -17.8%, COc1cccc(S(=O)(=O)N2CCN(Cc3ccc4c(c3)OCO4)CC2)c1 -10.4%, CCc1ccc(-c2nc3c(c(SCc4ccccc4F)n2)Cc2c(CO)cnc(C)c2O3)cc1 -8.91%, Cc1cccc(N2CCN(C(=O)CN3CCSc4ccccc43)CC2C)c1 (stereo not drawn) -27%, CCCc1nc(SC)ncc1C(=O)N1CCN(c2ccc(Cl)cc2)CC1 -36.4%, O=C(Nc1ccc2nc(SCC(=O)N3CCc4ccccc43)sc2c1)c1ccc(F)cc1 -7.76%, O=c1c2oc3ccccc3c2n(Cc2ccccc2Cl)c(=O)n1Cc1ccco1 -16.9%, COc1ccc(CN(Cc2ccco2)c2cnc(S(C)(=O)=O)nc2C(=O)Nc2ccc(C)c(Cl)c2)cc1 -17.9%, Cc1ccc(NC(=O)c2cnn3c(C(F)F)cc(-c4ccccc4)nc23)cc1F 1.21%, CCCn1c(SCc2nc(-c3ccc(OC)c(OC)c3)no2)nnc1-c1ccccc1 -23.3%, CC(C)Oc1ccc(C(=O)N2CCN(CCc3ccccn3)CC2)cc1 -8.08%, O=C(NCCc1ccccc1)C1CCC(CNS(=O)(=O)c2ccccc2)CC1 (stereo not drawn) -0.55%, CC(=O)OCC(=O)[C@@]12N=C(C)O[C@@H]1C[C@H]1[C@@H]3CCC4=CC(=O)C=C[C@]4(C)[C@H]3[C@@H](O)C[C@@]12C -1.83%, NS(=O)(=O)c1ccc(CCNC(=O)Cn2c(-c3cccs3)cc3ccccc32)cc1 -28.2%, Cc1cc2c(cc1C)NC(CC(=O)Nc1cccc(Cl)c1)C(=O)N2 (stereo not drawn) -25.1%, O=C(O)Cc1sc(-c2ccccc2)nc1-c1ccc(Cl)cc1 -7.71%, C=CCc1cccc2cc(C(=O)NCCc3c(C)[nH]c4c(C)cccc34)c(=O)oc12 -10.8%, CCN(CC)c1ccc(NC(=O)CCc2nc3cccnc3n2Cc2cccs2)c(C)c1 -18.8%, O=C(NCC(c1ccc2c(c1)OCO2)N1CCOCC1)C(=O)Nc1ccccc1 (stereo not drawn) -3.26%, CCOC(=O)N1CCC(NC(=O)c2cnn(-c3ccc(F)cc3F)c2C2CCN(C(=O)OC(C)(C)C)CC2)CC1 -16.3%, Cc1ccccc1NC(=O)c1ccc2c(O)c(S(=O)(=O)c3ccccc3)c(=O)[nH]c2c1 -4.61%, Cc1cccc(N2CCN(S(=O)(=O)c3ccc(-c4cc(C(F)(F)F)on4)s3)CC2)c1C -16.6%, Cc1ccccc1OCC(=O)Nc1ccc2nc(SCC(=O)N3CCc4ccccc43)sc2c1 -26%, O=C(C1CCCN(S(=O)(=O)c2ccc(Br)s2)C1)N1CCN(c2cccc(Cl)c2)CC1 (stereo not drawn) -25.4%, COc1cccc(C2C(C(=O)Nc3ccc(Cl)cc3)=C(C)Nc3nc4ccccc4n32)c1 (stereo not drawn) -19.9%, OCc1cc(C(O)CNCCCCCCOCCCCc2ccccc2)ccc1O (stereo not drawn) -13.3%, CCC(C)Sc1oc(-c2ccco2)nc1S(=O)(=O)c1ccc(C)cc1 (stereo not drawn) -34.8%, Cc1ccc(CNc2ncnc3c2cnn3-c2ccc(Cl)cc2)cc1 18.3%, COc1ccc2c(c1)c1c(c(=O)n(-c3ccc(C)cc3)c(=O)n1CC(=O)NCc1ccc(C)cc1)n2C -5.41%, COc1ccc(Cl)cc1NC(=O)c1nnn(Cc2cccc(C(F)(F)F)c2)c1N 8.51% [at 11.5 µM, percent change from vehicle, -100% = no light], O=C(Nc1nnc(S(=O)(=O)N2CCOCC2)s1)c1ccccc1F 18%, Cc1ccc(NC(=O)C(C)Sc2nc(-c3ccccc3)c(C#N)c(=O)[nH]2)c(C)c1 (stereo not drawn) -9.64%, O=c1c(N2CCc3ccccc3C2)csc2ccc(Cl)cc12 21%, CC(C)Cc1nn2c(=O)cc(COC(=O)c3ccc(NC(=O)CCc4ccccc4)cc3)nc2s1 12.2%, COc1ccc(Nc2c(-c3ccc(N4CCOCC4)cc3)nc3ncccn23)cc1OC -6.77%, CC(C)c1cnc2c(c1SCC(=O)N1CCCCC1)c(=O)n(C)c(=O)n2C -16.1%, CCOc1cc(CN2CCN(S(=O)(=O)c3ccc(C)cc3)CC2)ccc1OC -20.9%, COc1ccc(/C=C/C(=O)Nc2sc(C)c(C)c2C(=O)O)cc1 20%, CCc1ccc2c(c1)NC(c1ccc(C)cc1)=NC(c1cccs1)=N2 23.9%, CCn1c(=O)sc2cc(NS(=O)(=O)c3ccc(C)cc3)ccc21 -26.9%, CCOC(=O)N1CCc2c(sc3c2c(=O)n(Cc2ccccc2)c(=O)n3CC(=O)Nc2ccc(C)cc2C)C1 -13%, COc1ccc(CCNC(=O)c2c(C)oc3ncnc(N4CCOCC4)c23)c(OC)c1 -10.6%, Cc1ccc(S(=O)(=O)Nc2cc3c(cc2C)n(C)c(=O)c(=O)n3C)c(C)c1 -18.6%, Cc1cc(C)cc(Nc2cc(C(=O)NC3CCC(C)CC3)c3ccccc3n2)c1 (stereo not drawn) -5.27%, CCCN1C(C(=O)c2ccccc2)=C(OC(=O)c2ccc(OC)cc2)c2ccccc2S1(=O)=O -9.15%, CCc1nc(-c2cc(S(=O)(=O)N3CCN(c4ccccc4F)CC3)ccc2OC)no1 -20.1%, Cn1nnnc1SCCCNCc1ccc(-c2ccc(F)c(Cl)c2)o1 -15.3%, CN(Cc1ccc(F)cc1)S(=O)(=O)c1nnc(NC(=O)c2ccccc2Cl)s1 -14.7%, O=C(Cn1c(=O)c(C(F)(F)F)nc2ccccc21)Nc1cccc(Br)c1 16.9%, CCc1ccc(NC(=O)CN2C(=O)CCSc3ccccc32)cc1 -18.6%, Cc1ccc(CNC(=O)C2CCCN(S(=O)(=O)c3cn(C)cn3)C2)cc1 (stereo not drawn) -3.26%, O=C(NCCc1ccccc1)c1ccc(CS(=O)(=O)Cc2ccccc2Cl)o1 -20.1%, Cc1cc(=O)n(CC(=O)NCc2ccc(OC(C)C)cc2)c2c1c(C)nn2-c1cccc(F)c1 -8.68%, Cc1cc(C)cc(NS(=O)(=O)c2ccc(N3CCCCS3(=O)=O)cc2)c1 -26.2%, Cc1c(C(=O)Nc2ccc(F)c(Cl)c2)oc2ccc(S(=O)(=O)N(C)C3CCCCC3)cc12 -30.3%, Cc1ccc(-n2ncc(C(=O)Nc3ccc4c(c3)OCO4)c2C2CCN(C(=O)OC(C)(C)C)CC2)c(C)c1 -23.8%, COc1cc(-c2noc(-c3ccc(NCc4ccco4)c([N+](=O)[O-])c3)n2)cc(OC)c1OC -9.3%, CCOC(=O)c1nc(Nc2ccccc2OC)c2ccccc2n1 -11.2%, Cc1cn2c(=O)cc(COc3ccc(NC(=O)c4ccccc4C)cc3)nc2s1 -2.13%, CCCCN(CC)C(=O)c1cc2c(=O)n3ccccc3nc2n1C 9.58%, CNCCC(Oc1ccc(C(F)(F)F)cc1)c1ccccc1 (stereo not drawn) -26.8%, CCc1ccccc1N(C)C(=O)c1cn(-c2cccc(OC)c2)c(=O)c2ccccc12 -36.2%, Cc1nc2n(c(=O)c1CCN1CCC(c3noc4cc(F)ccc34)CC1)CCCC2, O=C(Nc1ccc(F)cc1F)C1CCN(S(=O)(=O)c2ccc3[nH]c(=O)ccc3c2)CC1 -17.8%
